# About 22,000 (7.3%) of roughly 300,000 compounds were called active. Inconclusive results, whose numbers are uncertain, are shown with a selection of clear calls. Rule as the data show it: active = activity score below about -60%; inconclusive = mostly about -28% to -61%; inactive = positive scores.
# Test: Activators via SNCA 5'UTR binding, MLPCN (AID 1814)
# Details: alpha-synuclein 5'UTR reporter, activators screen; hits give low values; tested at 7.5 µM
row,Structure (SMILES),activity score
1,COc1ccc(N2CCN(c3nc4ccccn4c(=O)c3C=O)CC2)cc1,active: -67.7%
2,O=C(CCSc1ccc(Cl)cc1)NC12CC3CC(CC(C3)C1)C2,inconclusive: -53.1%
3,Cc1cc(SCn2nnc3ccccc3c2=O)nc2ccccc12,inconclusive: -50.3%
4,CCOC(=O)c1cnc(-n2nc(C)cc2C)nc1NNc1nc(-c2ccccc2)cc(-c2ccccc2)n1,inactive: 81.7%
5,Cn1c(=NC(=O)c2ccc3c(c2)OCCO3)sc2cc(S(C)(=O)=O)ccc21,inconclusive: -31.2%
6,CCN1CCN(c2cc(C)c3cc(NC(=O)c4ccc(C)c(C)c4)ccc3n2)CC1,inactive: 16.8%
7,O=C1C2CCCN2C(c2cccc(Br)c2)N1c1ccc(F)cc1 (stereo unspecified),inconclusive: -23.3%
8,O=C(Nc1nnc(C2CC2)s1)C1Cc2ccccc2CN1S(=O)(=O)c1ccccc1F (stereo unspecified),active: -178%
9,COc1ccccc1C(=O)NNC(=O)c1ccccc1Br,inconclusive: -41.3%
10,COc1cc2ccccc2cc1C(=O)NC(=S)Nc1cccc(C(=O)O)c1,active: -91.4%
11,CCC(=O)Nc1nonc1-c1nc2ccccc2n1Cc1cccc2ccccc12,inactive: 67.3%
12,CCN(C(=O)COC(=O)c1cc(-c2ccc3cc(OC)ccc3c2)nc2ccccc12)C1CCS(=O)(=O)C1 (stereo unspecified),inactive: 67.5%
13,Cc1cccc(C2c3[nH]c4ccccc4c3CCN2Cc2cccn2-c2ncccn2)c1 (stereo unspecified),inconclusive: -49.7%
14,C=CCn1c(C)cc(-c2csc(NC(=O)C3=COCCO3)n2)c1C,active: -89.4%
15,Cc1cccc(Oc2coc3cc(OC(=O)c4cc5ccccc5oc4=O)ccc3c2=O)c1,inconclusive: -52.1%
16,Cc1nc2ccccn2c1C(=O)N/N=C/c1ccc2c(c1)OCO2,active: -96.1%
17,Cc1c(C(=O)OC2CCCCC2)[nH]c2c1C(=O)CC(C)(C)C2,inconclusive: -52.1%
18,O=C(Nc1ccc(Oc2ccc(NC(=O)Nc3ccc([N+](=O)[O-])cc3)cc2)cc1)Nc1ccc([N+](=O)[O-])cc1,inactive: 90.7%
19,Cc1nn(-c2ccccc2)c(N)c1N=Nc1ccccc1,inconclusive: -49.1%
20,CCc1nnc(NC(=O)c2ccc3nc(CC)c(CC)nc3c2)s1,inconclusive: -61.2%
21,O=S(=O)(c1ccc2nc(COc3ccccc3)[nH]c2c1)N1CCOCC1,inconclusive: -49.3%
22,COc1cc(C=O)ccc1OCc1ccccc1Br,active: -202%
23,c1ccc(Cc2nnc3sc(-c4ccc5c(c4)OCCO5)nn23)cc1,inconclusive: -59.1%

row,Structure (SMILES),activity score
1,COc1cccc(NC(=O)Nc2ccc3nc(C)c(C)nc3c2)c1,inconclusive: -60.1%
2,COC(=O)c1sc(NC(=O)COc2ccc(OC)cc2)nc1C,inconclusive: -45.3%
3,Cc1nn(-c2ccccc2Cl)c(Cl)c1/C=N/Nc1cccc(C(=O)O)c1,inactive: 103%
4,Cc1ccccc1NC(=O)c1ccc([N+](=O)[O-])o1,inconclusive: -47.6%
5,CCOC(=O)c1ccc(NC(=O)c2ccccc2[N+](=O)[O-])cc1,active: -75.8%
6,COc1ccccc1-c1ccc(Nc2cccc(C(F)(F)F)c2)nn1,inconclusive: -56.1%
7,CC(=O)Nc1ccc(SCC(=O)c2cc(C)n(Cc3cccs3)c2C)cc1,inactive: 68.4%
8,COc1cc(NC(=O)Nc2cccc3cccnc23)cc(OC)c1OC,inconclusive: -59.2%
9,O=C(NCCc1ccccc1)C1c2ccccc2C(=O)N1Cc1cccs1 (stereo unspecified),inconclusive: -42.8%
10,CCc1nnc(NC(=O)c2ccc(S(=O)(=O)N(C)c3ccccc3)cc2)o1,inactive: 55.9%
11,CCC(=O)N1CCN(c2ccc(Cl)cc2NC(=O)c2ccc([N+](=O)[O-])o2)CC1,inconclusive: -58.5%
12,Cc1nn(Cc2c(Cl)cccc2Cl)c(C)c1NC(=O)c1cn(-c2ccccc2)nc1-c1ccccc1,inactive: 122%
13,c1ccc(-c2nnc3sc(CN4CCC5(CC4)OCCO5)cn23)cc1,inconclusive: -38.2%
14,Cc1cccc(Oc2ncc(-c3ccc(Cl)cc3)cn2)c1,inconclusive: -45.9%
15,CC(=O)Nc1ccc(/C(C)=N/NC(=O)c2ccccc2Cl)cc1,inconclusive: -40.2%
16,CCN(CC)CCN(C(=O)c1cc2c(ccc3ccccc32)oc1=O)c1nc2cc3c(cc2s1)OCCO3,inactive: 78.2%
17,CC(C)CNc1nc(N)c([N+](=O)[O-])c(NCC2CCCO2)n1 (stereo unspecified),inactive: 51%
18,COc1ccccc1N/N=C1\COC(C)(C)CC1=O,inconclusive: -56.4%
19,Cc1nc(-c2ccc(S(=O)(=O)N3CCN(c4cccc(C)c4C)CC3)cc2)co1,inconclusive: -34.8%
20,COc1ccc(/C=C/C(=O)Nc2cccc(C(C)=O)c2)cc1,active: -95.3%
21,CC(=O)c1ccc(NC(=O)C(C)Sc2nnc(C3CCCCC3)o2)cc1 (stereo unspecified),active: -128%
22,OCCCNCc1ccc(N(c2ccccc2)c2ccccc2)cc1,inconclusive: -57.6%
23,O=C(Nc1nc2cc3c(cc2s1)OCCO3)C1=COCCO1,inactive: 99%

row,Structure (SMILES),activity score
1,CCCCCN=Cc1c(C)[nH]n(-c2nc3ccccc3s2)c1=O,inactive: 62.5%
2,Cc1cc(SCC(=O)N/N=C/c2ccc(O)c(O)c2O)c(C)cc1Br,inactive: 67.5%
3,CC(C)Cc1csc(NC(=O)c2ccc(Cl)cc2)c1C(=O)O,inconclusive: -45.9%
4,O=C(N/N=C/C=C/c1ccccc1[N+](=O)[O-])c1cccs1,inconclusive: -49.8%
5,COc1cccc(C(=O)N/N=c2\sc3ccccc3n2C)c1,inconclusive: -42.5%
6,CCN(CC)S(=O)(=O)c1cccc(C(=O)N/N=C/c2cccc(O)c2O)c1,inactive: 65.7%
7,CC1CN(C(=O)c2ccccc2)C(=Nc2cccc(S(=O)(=O)N(C)C)c2)S1 (stereo unspecified),inactive: 40.9%
8,COc1ccc(C(=O)Cc2nnc(C)s2)c(OC)c1,inconclusive: -56.4%
9,Cc1ccc(CN2CC(C(=O)Nc3cc(C)ccn3)CC2=O)cc1 (stereo unspecified),inconclusive: -56.7%
10,CC1CCC(NC(=O)c2cccc(S(=O)(=O)N3CCN(C)CC3)c2)CC1 (stereo unspecified),inconclusive: -56.1%
11,Cc1nn(C)c(C)c1CNC(=O)Nc1ccc(Cl)cc1,active: -88.7%
12,COc1ccc(-c2c(C)nc3c(-c4ccccn4)cnn3c2N)cc1,active: -181%
13,COc1ccc(C(=O)Cc2cc(OC)c(OC)cc2[N+](=O)[O-])c(OC)c1,inconclusive: -43%
14,O=C(Cc1ccc(F)cc1)Nc1nc(-c2ccc(F)c(F)c2)cs1,inconclusive: -47.5%
15,COc1cc(Cn2ccnc2)c(OC)cc1Cn1ccnc1,inconclusive: -41%
16,Cc1ccc(NC(=O)CN2C(=O)N/C(=C/c3ccccc3OCc3cccc(C(=O)O)c3)C2=O)cc1,inconclusive: -36.9%
17,Cc1cc[n+](C2=C([O-])c3ccccc3C(=O)/C2=N\S(=O)(=O)c2cccs2)cc1C,inactive: 73.8%
18,Cc1ccn2c(NC(C)(C)C)c(-c3cccs3)nc2c1,inconclusive: -52.6%
19,CCOC(=O)c1sc(NC(=O)CSc2nnc(-c3ccco3)o2)c(C(=O)OCC)c1C,inconclusive: -56.4%
20,COC(=O)c1ccc2nc(NC(=O)C(C)(C)C)sc2c1,inactive: 59.9%
21,Cc1ccc(-c2nnc(-c3ccccc3)o2)cc1,active: -76.7%
22,CN(C)CC/C=C1/c2cc(F)ccc2CSc2ccc(F)cc21,inconclusive: -26.5%
23,Cc1ccc(NC(=O)/C=C/c2ccc(Cl)cc2)nc1,active: -158%

row,Structure (SMILES),activity score
1,O=C(NS(=O)(=O)Nc1ccc(Cl)cc1)c1c[nH]c2ccccc12,inconclusive: -49.9%
2,O=S(=O)(c1ccc(NC(=S)NCc2cccnc2)cc1)N1CCCCC1,inactive: 86.4%
3,CC(C)(C)OC(=O)N/N=C/c1ccc(N2CCOCC2)s1,inconclusive: -53.9%
4,Clc1ccc(-c2cn3cc(Br)ccc3n2)cc1Cl,inconclusive: -39.6%
5,COc1ccc(C2=NN(C(N)=S)C(c3ccccc3)C2)cc1 (stereo unspecified),inconclusive: -56.7%
6,COCC1CCN(Cc2nc(-c3ccc4c(c3)OCO4)no2)C1 (stereo unspecified),active: -114%
7,COc1cc(OC)c(OC)cc1CN1CCCC(C(=O)c2ccccc2SC)C1 (stereo unspecified),inactive: 50.2%
8,O=C(Nc1ccc2c(c1)OCCO2)c1cc(F)c(F)cc1Cl,active: -195%
9,C(=C\c1ccc2ccccc2n1)/c1ccccc1,inactive: 66.9%
10,CCN(c1ccccc1)S(=O)(=O)c1ccc(C(=O)Nc2nnc(C3CC3)o2)cc1,inactive: 70.5%
11,CCc1ccc(S(=O)(=O)Nc2ccc(-c3nc4cccnc4s3)cc2)s1,active: -97.8%
12,O=c1c2ccccc2ncn1-c1ccc(Cl)cc1,inconclusive: -52.4%
13,Cc1coc2c1C(=O)C(=O)c1c-2ccc2c(C)cccc12,active: -64.2%
14,CCCn1c(=N)c(C(=O)NCc2ccc3c(c2)OCO3)cc2c(=O)n3cccc(C)c3nc21,inconclusive: -51.3%
15,CC(C)(C)c1nnc(NC(=O)c2cccs2)s1,active: -143%
16,Cc1ccc(-c2nn(-c3ccccc3)cc2NC(=O)CCl)cc1,active: -71.1%
17,COc1ccc(C(=O)Nc2cccc(-c3cnc4ccccc4n3)c2)cc1,inconclusive: -59.9%
18,COc1ccc(C(=O)Nc2cccc(C)c2)cc1,inconclusive: -53.7%
19,CC(=O)Nc1ccc(N=Cc2ccc(OCc3ccccc3)cc2)cc1,active: -129%
20,COc1ccc(/C=N\NC(=O)c2c(C)nc3ccc(Br)cn23)cc1,inactive: 51.5%
21,O=C(c1ccc(Cl)cc1)c1cnc(Nc2ccccc2Cl)s1,active: -156%
22,CC1Cc2ccccc2N1Cc1nc2cc(C(F)(F)F)ccc2c(=O)[nH]1 (stereo unspecified),inconclusive: -51.2%

# Reference: PubChem BioAssay AID1814 (Broad Institute, 2009)
